± gives the standard deviation of the averaged measurements. This is one part of the list.

The test system of this assay is PfAP2-G AP2 domain (GST-tagged). The assay is described as follows: gcPBM binding intensity (ln(normalized median fluorescence intensity)); higher = stronger DNA binding. The method, boiled down:
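GST-tagged P. falciparum DNA-binding domains, expressed in E. coli (about 25 μg on average), were applied for 1 h to an Agilent 4 × 180k array of primer-extended double-stranded 36-bp intergenic genomic probes plus negative controls. The binding buffer was 1× PBS with 1% milk, 0.2 mg/ml BSA, 0.5% salmon testes DNA and 0.03% Triton X-100. Bound protein was detected with Alexa488 anti-GST antibody and scanned at 488 nm. Binding intensity is the highest Masliner-normalised natural-log median intensity across replicate spots of either probe orientation.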
Turning to “ATTAACATTTTCGTATGTACATATATAATATATGTT [XGTACX_site7184]”, the “gcPBM binding intensity (ln)” value stood at 11.1 ± 0.64. Under “TATATATATATGTGCACACATAATAAAAAAAAAAAT [CACACA_site3831]” stands 10.6 ± 0.69; under “TATAAAGCATATTAAAGTACTTATTTTCCTTTTTCT [XGTACX_site8892]”, 11.1 ± 0.57. As to “TTTTATTTTATTCTTAAATAAGTATTATAAAATATG [XGTACX_negctrl_site201]”, the “gcPBM binding intensity (ln)” value was 10.2 ± 0.39.

For “TTATTTGAACAATATGCACACATTTTATTTATTTTA [CACACA_site3420]”, the “gcPBM binding intensity (ln)” value is 10.035 ± 0.007.

As to “TTAATGTTGTATGGTTGTACAATAAGCCCCTTTTAA [XGTACX_site2484]”, the “gcPBM binding intensity (ln)” value came to 11.1 ± 0.47. Under “GTAAAATAAAATATATGTACATATGTATATGAGGTA [XGTACX_site3743]” stands 11.4 ± 1; under “GACATATTCCCCCCCACACACACACCCACATACATA [CACACA_site2302]”, 11.8 ± 0.71. With “TTTTGATCATCCAAAATATCTTCATCTGAACTACTA [CACACA_negctrl_site939]”, the “gcPBM binding intensity (ln)” value turned out to be 9.84 ± 0.042. With “TATGATGATATAAAAACACACACATATAATATAATA [CACACA_site8321]” the figure was 10.04 ± 0.035; with “TTAAAGCTTACATATACACACATACATAAATTCATA [CACACA_site8785]”, 10 ± 0.11. With “CTACATATTAATATATGTACATATTAATATATCTAA [XGTACX_site7118]” the figure was 11.3 ± 0.66; with “ATATATACATATAAATGTACATAATTATTATGCACA [XGTACX_site1261]”, 10.8 ± 0.58. With “ATAAAAAGAAAAAAGGGTACACTATACTATTTAAAA [XGTACX_site4467]” the figure was 11.4 ± 0.95; with “TGTTGATAAAAAATAAAAAATAAAAAAATAAAATAT [TGCATGCA_negctrl_site559]”, 9.65 ± 0.071. On to “TACCCTGATCGGCATGCATGTAAGTAACAAATATAT [TGCATGCA_site153]”, for which the “gcPBM binding intensity (ln)” value amounted to 10.2 ± 0.25.

For “ATTTAGAAATATATTTGTACATATATATATATATAT [XGTACX_site7129]”, the “gcPBM binding intensity (ln)” value was 10.7 ± 0.46.

In the case of “ATTCAAACAAATTAATGTACATATATATAAGATATT [XGTACX_site1531]”, the “gcPBM binding intensity (ln)” value was found to be 11.1 ± 0.46. With “AATATAATATAATGCACACATAAAAAAAAAATCAAA [CACACA_site122]” the figure was 10.1 ± 0.29; with “AAAACAAAATTATGAACATGCAAGGTAAAATTGTAA [TGCATGCA_site775]”, 10.165 ± 0.007. Under “ATGTAGTTTTATCAGTGTACAAGTATTTTATCACAT [XGTACX_site8958]” stands 11.4 ± 0.73; under “GTACAAATGTTGTGTATATATACACACATACATATA [XGTACX_negctrl_site276]”, 10.9 ± 0.46.

Regarding “AACTTACTTGGACATACACACATATAGATTTATATA [CACACA_site7412]”, the “gcPBM binding intensity (ln)” value was 10.7 ± 0.4. Under “CATATGCATACTATACGTACATATGTATATAATATA [XGTACX_site7738]” stands 11.4 ± 0.87; under “ATATATATATTTTTTAAACACACACCGAAATATTTG [CACACA_site8937]”, 10.2 ± 0.14. With “TTAATTAAAACGAATACACACATAAATATATAAAAG [CACACA_site1254]” the figure was 10.3 ± 0.24; with “TTTTATTATTGAATACTAGTATATATAATATGAAGA [CACACA_negctrl_site910]”, 10.1 ± 0.35; with “AAAATATATATATATATATATATATGTATACTCCTA [XGTACX_negctrl_site312]”, 10 ± 0.29. With “TTATTTATAAATATTAATTTTTTTTTTTTTTTTTTT [XGTACX_negctrl_site105]” the figure was 10.3 ± 0.28; with “TTTTATGTTTCAAAATGTACATTAAAATATACCATA [XGTACX_site1713]”, 11 ± 0.48. Turning to “AAATTAAAAAGACATTCACACATTTTCATCTTAACA [CACACA_site5221]”, the “gcPBM binding intensity (ln)” value came out at 9.76 ± 0.28. Consider “AAACATATATATATTATATATATATATATATATATG [GTGCAC_negctrl_site182]”, for which the “gcPBM binding intensity (ln)” value is 9.65 ± 0.014.

Turning to “TAACATATAATATTCACACACATATATATATTATAT [CACACA_site988]”, the “gcPBM binding intensity (ln)” value is 9.825 ± 0.035. Under “TGTAGGTATTATTATACACACATAAAAAAAAAAAAA [CACACA_site3598]” stands 10 ± 0.45. Under “TAAAATATTATAAAATGTACAAAACATATAAATATA [XGTACX_site5315]” stands 10.6 ± 0.4; under “TATTATTATCTTACCACACACAATGTACGAAAAGAT [CACACA_site352]”, 11 ± 0.61; under “AATATATATAAATATTGTACAAAAATATATATATAT [XGTACX_site2910]”, 10.8 ± 0.57. With “ATATATGATGTAAAAGCACACATATATATATATATA [CACACA_site9330]” the figure was 10.2 ± 0.47; with “TCCCTCTTTTTATTCTCACACACGTTTATATATAAA [CACACA_site1644]”, 10.3 ± 0.41. For “AAACATCTTTACAACGTCCCTCCTTTTTTATGTACC [GTGCAC_negctrl_site528]”, the “gcPBM binding intensity (ln)” value amounted to 10.3 ± 0.13. Consider “TATATTTTCTATAGGTGTACTCCACATGCGGTGTTA [XGTACX_site7471]”, for which the “gcPBM binding intensity (ln)” value was 11.6 ± 0.95.

Regarding “ATATTGATACATCCAATACACACTACATATAATGAT [CACACA_site1874]”, the “gcPBM binding intensity (ln)” value worked out at 10.15 ± 0.042. Under “AAAAATATATAACAAAGTACATATATATTTAGTAAT [XGTACX_site8791]” stands 10.9 ± 0.7; under “GGAAAAAAACTTATGAGTACACATAAATATAGCACA [XGTACX_site6686]”, 11.5 ± 0.96.

These data come from the supplement of paper PMC11417369.
